The record followed here is publication PMC6919601, “Identification of Plasmodium dipeptidyl aminopeptidase allosteric inhibitors by high throughput screening” (PLoS ONE, 2019).

Values joined by “and” are separate entries in the source; they are usually repeats but may differ in a detail not shown here. Identical values can stand only once. Screen size: about 110,000 compounds; about 230 (0.21%) showed an effect of 50% or more. This is one part of the list.
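Also: 30 min substrate incubation versus DMSO and 10 µM JCP410 controls.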

Chain of DPAP1 (Q8IIJ9 whole entry, looked up): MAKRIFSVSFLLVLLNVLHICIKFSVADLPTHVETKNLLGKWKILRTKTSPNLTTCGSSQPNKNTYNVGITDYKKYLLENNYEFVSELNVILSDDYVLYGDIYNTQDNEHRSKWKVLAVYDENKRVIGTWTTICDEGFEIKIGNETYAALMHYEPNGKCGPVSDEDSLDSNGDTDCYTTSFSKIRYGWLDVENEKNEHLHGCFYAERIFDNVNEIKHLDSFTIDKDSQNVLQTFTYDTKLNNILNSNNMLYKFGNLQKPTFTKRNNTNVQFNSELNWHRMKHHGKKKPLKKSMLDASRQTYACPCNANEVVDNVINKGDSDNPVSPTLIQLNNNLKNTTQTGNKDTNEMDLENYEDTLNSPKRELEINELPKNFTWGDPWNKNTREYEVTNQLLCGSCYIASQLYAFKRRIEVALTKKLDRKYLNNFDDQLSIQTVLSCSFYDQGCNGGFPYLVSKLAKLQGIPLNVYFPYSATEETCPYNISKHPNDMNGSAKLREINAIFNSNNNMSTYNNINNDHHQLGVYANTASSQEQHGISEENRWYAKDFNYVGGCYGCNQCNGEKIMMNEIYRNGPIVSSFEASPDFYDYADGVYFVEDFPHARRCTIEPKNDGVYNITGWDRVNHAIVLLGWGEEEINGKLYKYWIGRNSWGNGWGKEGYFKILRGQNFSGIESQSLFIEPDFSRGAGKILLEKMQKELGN

This experiment has as its target DPAP1 (Plasmodium falciparum, UniProt Q8IIJ9). The experiment is described as follows: primary screen, percent inhibition; read by cleavage of a fluorogenic dipeptide substrate; higher = more effect of the substance. More on the design: species or system P. falciparum D10 trophozoite lysates; single well.
Regarding `CC1(C)CC(NC(=O)c2cc(Cl)ccc2Cl)CC(C)(C)N1`, the “% Inhibition @ 10 uM” value was -2.67%.

As for `COc1ccc(Br)cc1C1C2=C(CC(C)(C)CC2=O)OC2=C1C(=O)CC(C)(C)C2`, the “% Inhibition @ 10 uM” value is listed as -1.96%. `Oc1c(C(c2ccncc2)N2CCOCC2)cc(Cl)c2cccnc12` (centres unmarked): the “% Inhibition @ 10 uM” value is reported as 1.91%. For `CCOc1ccc(S(=O)(=O)NCCc2ccccc2)c2ccccc12`, the “% Inhibition @ 10 uM” value is listed as -6.87%. The figure for `CCc1nnc(NC(=O)c2nc(-c3ccc(Cl)cc3)n3c2CCCCC3)s1` is 7.82%; for `Cc1cccc(/N=C/c2nc(-c3ccc(Cl)cc3)oc2O)n1` it is 2.92%; for `Cc1ccccc1C(=O)NCCCNC(=O)c1ccccc1C` it is 2.08%. The figure for `O=C(O)c1ccc(Cl)c(N2C(=O)C3C4C=CC(C4)C3C2=O)c1` (centres unmarked) is 5.39%. The figure for `COCCNc1oc(/C=C/c2cccs2)nc1C#N` is 4.64%; for `CCc1ccc(C(=O)/C=C/c2ccccn2)cc1` it is 1.48%; for `Cc1c(C(=O)N2CCCC2)oc2c1-c1nn(CC(=O)NCCc3ccccc3)cc1CC2` it is -1.38%. As for `CCCCN(Cc1ccccc1)Cc1ccccc1O`, the “% Inhibition @ 10 uM” value turned out to be 2.99%.

As to `COc1ccccc1C(CNC(=O)c1oc2ccc(Cl)cc2c1C)N(C)C` (centres unmarked), the “% Inhibition @ 10 uM” value came out at 5.54%.

As for `CCCc1cc(O)n2nc(-c3ccc(Cl)cc3)nc2n1`, the “% Inhibition @ 10 uM” value is -0.671%. For `Cc1ccc(N)c(C(O)c2ccccc2)c1` (centres unmarked), the “% Inhibition @ 10 uM” value came to 3.42%.

For `CCOc1ccc(NCC(=O)Nc2ccc(Cl)cc2C)cc1`, the “% Inhibition @ 10 uM” value was -2.86%. Regarding `CC(C)CNC(=O)c1cc(-c2ccc(F)cc2)on1`, the “% Inhibition @ 10 uM” value is given as -2.65%. As for `O=C(NC1CCCC1)c1cc(-c2ccc3c(c2)OCO3)nc2ccccc12`, the figure is 0.931%; as for `CC1CCc2c(sc3nnn(C)c(=O)c23)C1` (centres unmarked), 3.87%. As for `O=[N+]([O-])c1ccccc1S(=O)(=O)N(Cc1ccccc1)Cc1ccccc1`, the figure is -0.0369%; as for `CCc1cc2c(cc3c(=O)n(CC(=O)NCCC4=CCCCC4)ncn32)s1`, 1.68%; as for `CC1=C(c2ccc(C)cc2)S(=O)(=O)N=C1NCCCN1C(C)CCCC1C` (centres unmarked), 0.623%.

Regarding `COc1ccc(NC(=O)C2CC(=O)N(C)/C(=N/c3ccc(C)c(Cl)c3)S2)cc1` (centres unmarked), the “% Inhibition @ 10 uM” value was -2.83%.

On to `COCCCn1c(-c2ccco2)nc2ccccc2c1=O`, for which the “% Inhibition @ 10 uM” value is -14.9%. The figure for `Cc1ccc(S(=O)(=O)NCC2CCC(C(=O)NCc3cccs3)CC2)cc1` (centres unmarked) is 0.718%; for `CCOC(=O)c1c(NC(=O)C(C)C)sc2c1CCC2` it is 2.45%. As for `CCCCN1C(=O)C(CC(=O)NCC)S/C1=N/c1ccccc1` (centres unmarked), the figure is -6.67%; as for `Cc1ccc(-n2nc3c(=O)n(CCCC(=O)NCCC(C)C)nc(C)c3c2C)cc1`, -4.77%; as for `N#CC1=C(N)N(c2ccc(Br)cn2)C2=C(C(=O)CCC2)C1c1cccs1` (centres unmarked), -4.67%. On to `CC(=O)Nn1c(C)nnc1-n1nc(C)cc1C`, for which the “% Inhibition @ 10 uM” value is recorded as 1.81%. As for `O=C(Nc1ccc(C(=O)N2CCOCC2)cc1)c1c(Cl)cccc1Cl`, the figure is -1.96%; as for `COc1ccc(CCc2ncccc2O)cc1`, 1.29% and 6.61%. For the compound `O=C1S/C(=C/c2cccc(O)c2)C(=O)N1Cc1ccccc1`, the “% Inhibition @ 10 uM” value is reported as 0.964%. As for `Cc1c(C(=O)NCc2ccccc2)oc2ccc(S(=O)(=O)N(C)C3CCCCC3)cc12`, the figure is 13.3%; as for `Cc1nn(C(C)C(=O)NC(C)C23CC4CC(CC(C4)C2)C3)c(=O)c2c1sc1ccccc12` (centres unmarked), -5.78%.

Consider `CCc1ccc(-n2nc(C)c3c(C(=O)NCc4ccc(C)o4)cc(C)nc32)cc1`, for which the “% Inhibition @ 10 uM” value is recorded as 6.13%. As for `CC(O)CN(CCc1ccccc1)CC(C)O` (centres unmarked), the figure is -0.603%.

As to `CC(NC(=O)CCc1ccc(S(=O)(=O)NC2CCCCC2)cc1)c1ccccc1` (centres unmarked), the “% Inhibition @ 10 uM” value is -2.92%.

On to `CC(C(=O)NCc1ccco1)n1cc(C(=O)c2ccco2)c2ccccc21` (centres unmarked), for which the “% Inhibition @ 10 uM” value is -8.95%. As for `O=C1C2CC=C(Cl)CC2C(=O)N1C1CCCCC1` (centres unmarked), the figure is 9.73%; as for `COc1nccnc1NS(=O)(=O)c1ccc(NC(=O)c2ccc(Cl)cc2)cc1`, 0.00178%; as for `CC(CN(CCN(C)C)Cc1ccccc1)c1ccccc1` (centres unmarked), -0.292%.

Regarding `CC(C)C[C@H](NC(=O)OCc1ccccc1)C(=O)N[C@@H](CCc1ccccc1)C(=O)CN(Cc1ccccc1)C(=O)OCc1ccccc1`, the “% Inhibition @ 10 uM” value is 0.744%. As for `O=C(COc1ccc(Br)cc1)Nc1ccccc1C(F)(F)F`, the figure is -2.5%; as for `COc1cc(C2Nc3c(C)cccc3-c3cc(C)nn32)cc(OC)c1O` (centres unmarked), -0.116%; as for `Nc1cc(Br)cc2cccnc12`, -0.856%. As for `CCN(CC)C(=O)C1CCCN(Cc2ccc(SC)cc2)C1` (centres unmarked), the figure is -6.36%; as for `COc1ccc(N(CC(=O)N2CCCCCC2)S(=O)(=O)c2ccc(OC)c(OC)c2)cc1`, -1.36%; as for `C#CCOc1c(Br)cc(C2C(C#N)=C(N)Oc3[nH]nc(C)c32)cc1OC` (centres unmarked), 3.92%.

`COc1cc2c(cc1OC)C(c1ccc(C)cc1)N(C)CC2` (centres unmarked): the “% Inhibition @ 10 uM” value is -6.29%. For the compound `CCOC(=O)C1=C(C)OC(N)=C(C#N)C1c1cccc2ccccc12` (centres unmarked), the “% Inhibition @ 10 uM” value was 3.03%.

As to `CCOc1ccc(N2C(=O)CC(NCc3ccncc3)C2=O)cc1` (centres unmarked), the “% Inhibition @ 10 uM” value was determined as 10.7%. As for `COCCNC(=O)C1c2ccccc2C(=O)N(CCOC)C1c1c[nH]c2ccccc12` (centres unmarked), the figure is 1.86%; as for `CCOCCCNC(=O)c1ccc2c(c1)ncn2-c1cc(OC)c(OC)c(OC)c1`, 1.2%; as for `O=S(=O)(c1ccccc1)c1nnn2c1nc(NCc1ccc3c(c1)OCO3)c1ccccc12`, -6.68%. As for `Cc1cccn2c(=O)c3cc(C(=O)Nc4ccccc4)n(C)c3nc12`, the figure is 5.26%. The figure for `CCc1ccc(OCC(=O)Nc2ccc(S(=O)(=O)Nc3nccs3)cc2)c(Br)c1` is -1.11%. Regarding `CCc1c(C)sc(NC(=O)c2cc(-c3cc(OC)ccc3OC)on2)c1C#N`, the “% Inhibition @ 10 uM” value stood at 1.15%.

Take `CCOC(=O)C1=C(CN2CCN(c3ncccn3)CC2)NC(=O)NC1c1cccs1` (centres unmarked): the “% Inhibition @ 10 uM” value was -0.913%. `O=C(COc1ccc(Cl)cc1)Nc1cc(Cl)cc(Cl)c1`: the “% Inhibition @ 10 uM” value worked out at 4.96%. The figure for `O=C(CC1CS(=O)(=O)CC1CC(=O)Nc1ccccc1)Nc1ccccc1` (centres unmarked) is 4.28%.

As for `CC1CN(Cc2ccccc2)CCC1(O)c1ccccc1` (centres unmarked), the “% Inhibition @ 10 uM” value turned out to be 3.1%. As for `O=P(O)(CN1CCCCCC1)CN1CCCCCC1`, the figure is -4.18%. The figure for `CCOc1ccc(C(C)NC(=O)c2ccccc2OC)cc1OCC` (centres unmarked) is 0.475%; for `O=C(O)C1C2c3ccccc3C(c3ccccc32)C1C(=O)Nc1ccccc1` (centres unmarked) it is -1.74%; for `CN1CC2CCCC3(C1)C(=O)NC1(CCCCC1)N=C23` (centres unmarked) it is -9.63%.

Consider `NC(=O)C1CCN(Cc2ccc(Cl)cc2)CC1`, for which the “% Inhibition @ 10 uM” value is -1.64%. `O=c1oc(-c2cccs2)nc2ccccc12`: the “% Inhibition @ 10 uM” value was -2.18%.

Take `COc1ccc(NC(=O)c2ccc(Cl)cc2)c([N+](=O)[O-])c1`: the “% Inhibition @ 10 uM” value amounted to 2.46%. As for `N#C/C(=C(/O)c1ccco1)c1nc2ccccc2s1`, the figure is -4.43%. The figure for `O=C1CCCc2sccc2N1` is 5.92%; for `CC(C)Cn1cc(NC(=O)NCCc2ccco2)c2ccccc2c1=O` it is 2.76%.

For the compound `Nc1nc(-c2cccnc2)nn1S(=O)(=O)c1ccccc1`, the “% Inhibition @ 10 uM” value is 5.5%. As for `CCC(C(=O)NCc1ccco1)n1c(SCc2ccc(F)cc2)nc2cccnc21` (centres unmarked), the figure is -2.5%; as for `CCn1c(=O)c2sccc2n2c(CCCC(=O)NCCNC(C)=O)nnc12`, 4.48%; as for `COc1cc(C2C(C#N)=C(N)OC3=C2C(=O)CC(C)(C)C3)cc(OC)c1O` (centres unmarked), -0.0372%. As for `COCC(C)NCc1ccc(F)c(F)c1` (centres unmarked), the figure is 0.177%. Consider `CC(C)(C)n1nc2c(c1NC(=O)c1c(F)cccc1F)CS(=O)(=O)C2`, for which the “% Inhibition @ 10 uM” value worked out at 0.111%. The figure for `O=C(Nc1cc2c(oc1=O)CCCC2=O)c1ccccc1` is -0.424%; for `CC(C)C(NS(=O)(=O)c1cccc2nsnc12)C(=O)Nc1nccs1` (centres unmarked) it is -4.1%. The figure for `COc1ccc(NC(=O)c2ccc3c(c2)C(=O)N(CC2CCCO2)C3=O)cc1O` (centres unmarked) is -0.496%; for `CN1CCCN(Cc2cccc(F)c2)CC1` it is -0.192%; for `O=C(NC1(C(F)(F)F)NC(=O)N(CCc2ccccc2)C1=O)c1ccccc1` (centres unmarked) it is 3.54%. For the compound `COc1cc2oc(=O)c(CC(=O)NCc3ccco3)c(C)c2cc1OC`, the “% Inhibition @ 10 uM” value came out at 0.895%.

With `CCc1c(C)sc(NC(=O)c2cc(-c3ccc(O)cc3)on2)c1C#N`, the “% Inhibition @ 10 uM” value is 6.29%. The figure for `c1cncc(CNCCc2c[nH]c3ccccc23)c1` is 0.147%; for `O=C(CCC(=O)N1CCN(c2cccc(Cl)c2)CC1)N1CCN(c2cccc(Cl)c2)CC1` it is 4.39%; for `Cc1cccc(NC(=O)CN(c2ccc(Br)cc2)S(C)(=O)=O)c1` it is -5.67%. The figure for `COP(=O)(OC)C(Nc1ccc(Cl)c(Cl)c1)c1ccc(Br)cc1` (centres unmarked) is 0.00178%; for `COc1ccc(NC(=O)CN(c2cccc(F)c2)S(C)(=O)=O)cc1OC` it is 0.889%; for `CCN(CC)S(=O)(=O)c1ccc2ncc(C(=O)NCCc3ccc(OC)c(OC)c3)c(O)c2c1` it is -6.91%. For the compound `O=C(NC1=NCCS1)C1CC(=O)N(c2ccc(F)cc2)C1` (centres unmarked), the “% Inhibition @ 10 uM” value is recorded as -5.3%. Take `COc1cccc(N(CC(=O)Nc2ccc(OC)cc2OC)S(C)(=O)=O)c1`: the “% Inhibition @ 10 uM” value is 2.02%. The figure for `O=C(NC1(C(F)(F)F)N=C2SCCN2C1=O)c1ccccc1F` (centres unmarked) is -5.4%; for `CC(=O)NC(CC(=O)O)c1ccccc1` (centres unmarked) it is -6.82%. The figure for `CCCN1C(=O)C(O)(CC(=O)c2cccs2)c2ccccc21` (centres unmarked) is 3.17%. For `COc1ccc(-c2nc3c(=O)[nH]c(=O)n(C)c3[nH]2)cc1`, the “% Inhibition @ 10 uM” value was -3.05%. Take `O=C(NCc1ccc(OC(F)(F)F)cc1)C1CCN(c2cnccn2)CC1`: the “% Inhibition @ 10 uM” value is on record as -6.43%. Consider `CC(=C1C(=O)c2ccccc2C1=O)N1CCN(CCO)CC1`, for which the “% Inhibition @ 10 uM” value is -9.79%. The figure for `CCc1ccc(CN(Cc2ccco2)C(=O)COc2ccccc2)cc1` is 2.29%. As for `COc1ccc(C(=O)N(Cc2nc(-c3ccc(C)cc3)no2)C(C)C)cc1OC`, the “% Inhibition @ 10 uM” value is 3.33%.
